Hit rate of the full screen: of about 200,000 compounds, about 560 (0.28%) were called active. Inconclusive means that the source gave no clear call. Such entries were picked first, then a sample of the others. Calls come from the whole dose curve; as a rule, active = well fitted inhibition curve with a large enough effect; inconclusive = small, poorly fitted or top-dose-only effect; inactive = flat fitted curve, though single readings scatter. Potencies of inconclusive entries are left out as doubtful fits. Where a structure was tested more than once in an assay, its records may differ in their call.
target: Luciferin 4-monooxygenase (Photuris pensylvanica) (UniProt Q27757); test: Counterscreen for Luciferase (Kinase-Glo TM) Inhibition; details: ATP luminescence, 8 min; series mostly up to 38.3 µM; activity change, negative = inhibition: at the top concentration; note: nearly all actives have a fitted effect of over 60% in size
Method in brief: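 Substrate mix (final 50 mM imidazole pH 7.2, 50 mM KCl, 7 mM MgCl2, 10 uM ATP, 0.01% Tween 20, 0.05% BSA) plus pin-tool compound, then Kinase-Glo detection mix; 8 min ambient, luminescence read.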
% is set by controls: 0 for no effect and ±100 for the full control effect; potency is the fitted concentration of half-maximal effect; tags give direction and shape of the fitted curve.

| Compound | Potency | activity change, negative = inhibition |
| --- | --- | --- |
| Cc1ccc(-c2nc(-c3ccccn3)no2)cc1Cl | active: 11.2 µM |  |
| COc1cc(CCC(=O)OCC(=O)NC2CCCC(C)C2C)cc(OC)c1OC (stereo not given) |  | inactive: -0.218% |
| O=C(O)c1ccccc1-c1cn2cc(Cl)ccc2n1 | inconclusive [inhibitor, single point] |  |
| O=C1c2ccccc2C(=O)C12OC2c1cccc2ccccc12 (stereo not given) |  | inactive: -1.25% |
| Nc1c(C(=O)N2CCOCC2)sc2nc3c(cc12)CCC3 | active: 11.2 µM |  |
| Cc1[nH]n(-c2ccc([N+](=O)[O-])cc2)c(=O)c1C=NCCN1CCN(C(=O)C(C)C)CC1 | active: 10 µM |  |
| Nc1ccccc1C(=O)/C=C/c1ccc2c(c1)OCO2 | active: 10 µM |  |
| O=C(Nc1ccc(F)c(F)c1)c1ccc2c(c1)OCO2 | inconclusive [inhibitor, single point] |  |
| CN(C)c1ccc(/C=C/c2ccc3ccccc3[n+]2C)cc1 | inconclusive [inhibitor, partial curve] |  |
| Cc1cccc(/C=N/Nc2ccc3ccccc3n2)c1 | inconclusive [inhibitor, single point] |  |
| Cc1ccc(/C=C(\C#N)C(=O)Nc2ccccn2)o1 | inconclusive [inhibitor, single point] |  |
| O=C(c1ccc(Cl)cc1)c1cnc(-c2ccc(Cl)cc2)s1 |  | inactive: -4.34% |
| Cc1cccc(/C=N/Nc2nncc3ccccc23)c1 | inconclusive [inhibitor, partial curve] |  |
| CCOC(=O)c1sc(NC(=O)c2ccc(C)o2)nc1C | inconclusive [inhibitor, partial curve] |  |
| NC(=O)c1ccsc1NC(=O)c1ccc(N2CCCC2=O)cc1 | inconclusive [inhibitor, partial curve] |  |
| COc1cccc(C=Nc2ccccc2C#N)c1O | inconclusive [inhibitor, partial curve] |  |
| CCOc1ccc(N=Nc2c(N)[nH][nH]c2=O)cc1 | inconclusive [inhibitor, single point] |  |
| CCNC(=S)NNC(=O)c1cc(-c2ccc(OC)cc2)nc2ccccc12 | inconclusive [inhibitor, single point] |  |
| CC(C)CC(=O)Nc1ccccc1-c1nnn(CC(=O)N2CCc3ccccc3C2)n1 |  | inactive: -0.692% |
| O=C(NN=C1CCCC1)c1n[nH]c2c1CCC2 | inconclusive [inhibitor, single point] |  |
| CCNC(=S)N/N=C/c1ccc(-c2ccccc2)o1 | inconclusive [inhibitor, single point] |  |
| CCc1nnc(NS(=O)(=O)c2ccc(N=Cc3c(C)[nH]n(-c4ccc(C)c(C)c4)c3=O)cc2)s1 | active: 2 µM |  |
| Cc1cc(C(=O)Nc2nc3c(s2)CCCC3)no1 | inconclusive [inhibitor, single point] |  |
| COc1ccccc1NC(=O)Nc1ccc2c(c1)nc(C)n2C | inconclusive [inhibitor, single point] |  |
| CC1(C)CCCN(C(=O)c2ccc3c(c2NCCO)C(=O)c2ccccc2C3=O)C1 | inconclusive [inhibitor, single point] |  |

| Compound | Potency | activity change, negative = inhibition |
| --- | --- | --- |
| CCc1n[n+](CC(=O)c2ccccc2)c(N)s1 | active: 10 µM |  |
| Cc1ccc(NC(=O)c2ccn(C)n2)c(Br)c1 | inconclusive [inhibitor, single point] |  |
| COc1ccccc1NC(=O)/C=C1\SCC(=O)N1C | inconclusive [inhibitor, partial curve] |  |
| O=C(/C=C/Nc1ccc(F)cc1Br)c1ccccc1 | inconclusive [inhibitor, partial curve] |  |
| Cc1cc(=O)c2c(O)c3c(O)cc(O)c4c5c(O)cc(O)c6c(O)c7c(=O)cc(C)c8c1c2c(c34)c(c65)c78 | inconclusive [inhibitor, partial curve] |  |
| COc1ccc(NC(=O)N2CC[C@@]3(CCCN(C(C)=O)C3)C2)cc1 |  | inactive: -4.84% |
| Oc1c(C=Nc2cccnc2)sc2ccccc12 | inconclusive [inhibitor, partial curve] |  |
| Cc1cc(NC(=O)c2ccc3c(c2)OCCO3)ccc1NC(=O)c1ccco1 | active: 11.2 µM |  |
| COc1ccc(/C=N/Nc2ccc(C(=O)O)cc2)cc1Br | inconclusive [inhibitor, single point] |  |
| Cc1[nH]nc2c1C(c1ccco1)C(C#N)=C(N)O2 (stereo not given) |  | inactive: -1.35% |
| CS(=O)(=O)c1ccc2nc(NC(=O)c3cccs3)sc2c1 | inconclusive [inhibitor, single point] |  |
| Cc1ccc(NC(=O)N2CCc3ccccc32)cc1 | inconclusive [inhibitor, partial curve] |  |
| Nc1ccc(O)c2c1C(=O)c1ccccc1C2=O | active: 12.6 µM |  |
| O=C(Nc1ccccc1)C(=O)c1cn(CC(=O)N2CCCCC2)c2ccccc12 |  | inactive: -0.642% |
| COc1ccc(C(=O)Nc2ccc3c(c2)OCO3)cc1OC | active: 12.6 µM |  |
| Cc1ccc(-c2cc(C(=O)Nc3ccc4c(c3)OCCO4)c3ccccc3n2)cc1 | inconclusive [inhibitor, single point] |  |
| O=C(NC1CC1)c1ccc(-c2nc3ccccc3s2)s1 | inconclusive [inhibitor, partial curve] |  |
| CCC(=O)Oc1ccc(-c2nc(-c3cccnc3)no2)cc1 | inconclusive [inhibitor, partial curve] |  |
| O=C(O)c1cccc(COc2ccccc2Cl)c1 | inconclusive [inhibitor, partial curve] |  |
| CCOC(=O)Cc1csc(NC(=O)c2ccoc2C)n1 | inconclusive [inhibitor, partial curve] |  |
| CCC1=NNc2cccc3c(OC)ccc1c23 |  | inactive: -21.4% |
| CN(C)CCCSc1ccccc1NC(=O)/C=C\c1ccccc1 | inconclusive [inhibitor, partial curve] |  |
| COc1ccc(-n2c(=O)cnc3cnc(Oc4cccc(Cl)c4)nc32)cc1 |  | inactive: -1.77% |
| Cc1nn2cc(-c3ncc(C(F)(F)F)cc3Cl)cnc2c1Br | inconclusive [inhibitor, single point] |  |
| Nc1c(S(=O)(=O)O)cc(Nc2ccc(Nc3nc(Cl)nc(Nc4ccc(S(=O)(=O)O)cc4)n3)c(S(=O)(=O)O)c2)c2c1C(=O)c1ccccc1C2=O | inconclusive [inhibitor, partial curve] |  |

| Compound | Potency | activity change, negative = inhibition |
| --- | --- | --- |
| Cc1ncsc1C(=O)Nc1nc2c(s1)CC(C)CC2 (stereo not given) | inconclusive [inhibitor, partial curve] |  |
| O=C(O/N=C1\CCCc2ccccc21)c1cccs1 | inconclusive [inhibitor, single point] |  |
| COc1cc(SC)ccc1C(=O)Nc1nc(C)cs1 | active: 11.2 µM |  |
| NC(=O)N/N=C/c1cn(-c2ccccc2)nc1-c1cccs1 | inconclusive [inhibitor, partial curve] |  |
| O=c1c(-c2ccc(F)cc2)coc2cc(O)ccc12 | inconclusive [inhibitor, single point] |  |
| O=C(/C=C/c1ccco1)Nc1ccccc1C(=O)O | inconclusive [inhibitor, single point] |  |
| CN(C)c1ccc(-c2nc3ccccc3n2C)cc1 | active: 10 µM |  |
| COC(=O)Nc1nnc(/C=C/c2ccc(OC)cc2)s1 | inconclusive [inhibitor, partial curve] |  |
| Cc1ccc2oc(-c3ccccc3)nc2c1 | inconclusive [inhibitor, single point] |  |
| CCN(CC)C(=O)c1ccc(Nc2nnc(C)c3ccccc23)cc1 | active: 11.2 µM |  |
| COCCCN1C(=O)c2ccc(C(=O)Nc3cccc(OC)c3)cc2C1=O | inconclusive [inhibitor, single point] |  |
| Cc1cccc(NC(=O)NC(=O)c2ccccc2)n1 | inconclusive [inhibitor, partial curve] |  |
| O=C(Nc1ccccc1)Nc1ccc(C(=O)N2CCCC2)cc1 | active: 6.31 µM |  |
| CN1CCC(=NNC(=O)CSc2ccc(Cl)cc2)CC1 |  | inactive: -0.92% |
| O=C1N=C(N2CCN(c3ccccc3)CC2)S/C1=C\c1cn[nH]c1-c1ccccc1 |  | inactive: -1.69% |
| CCOC(=O)c1sc(NC(=O)Nc2ccccc2Cl)cc1C | inconclusive [inhibitor, single point] |  |
| CN(C)c1ccc(/C=N\NC(=O)c2csnn2)cc1 | inconclusive [inhibitor, single point] |  |
| CCn1c(=O)c(C(C)=O)c(O)c2ccccc21 |  | inactive: -1.18% |
| Cc1ccc(O)c(/C=N/NC(=O)c2[nH]ncc2Br)c1 | inconclusive [inhibitor, single point] |  |
| Nc1ccc2nc(-c3cc(Cl)c(N)c(Cl)c3)[nH]c2c1 | inconclusive [inhibitor, partial curve] |  |
| O=c1oc2ccccc2cc1-c1cn2cccnc2n1 | inconclusive [inhibitor, partial curve] |  |
| Cc1nc(-c2coc3cc(OCC(=O)O)ccc3c2=O)cs1 | inconclusive [inhibitor, partial curve] |  |
| Cc1cccc(N2C(=O)c3cccc4c(N(C)CCO)ccc(c34)C2=O)c1 |  | inactive: 4.14% |
| Cc1[nH]n(-c2ccc([N+](=O)[O-])cc2)c(=O)c1C=NCCN1CCN(C(=O)c2ccc(Br)cc2)CC1 | inconclusive [inhibitor, single point] |  |
| CCOC(=O)c1cnc(-n2nc(C)cc2C)nc1N(C)C | inconclusive [inhibitor, partial curve] |  |
